Paper PMC11475522
Where a chain is given by its changes, count along the chain named. Numbers in names are those of the source. No constants are given. Whether binding was seen depends on the method and setting. In cells and extracts the contact can be indirect. Some results given as binding are weak or reduced against the parent protein; the word gives no strength. For some of these results: Where a sequence is shown, tags or fusion partners need not be part of it.

Amino acid sequences for entries named in this document (tags omitted). A change or cut given only in a name is not applied to a line headed by its entry. Chains listed by the source or under a name are the forms on record and can include a tag or linker.
UniProt P61586: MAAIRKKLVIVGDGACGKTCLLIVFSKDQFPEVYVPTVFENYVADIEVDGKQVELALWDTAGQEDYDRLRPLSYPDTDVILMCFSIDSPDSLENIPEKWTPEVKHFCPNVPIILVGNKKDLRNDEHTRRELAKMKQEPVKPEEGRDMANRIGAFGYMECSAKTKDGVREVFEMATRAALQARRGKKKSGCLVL
GFP-RhoAN19 (P61586, form named): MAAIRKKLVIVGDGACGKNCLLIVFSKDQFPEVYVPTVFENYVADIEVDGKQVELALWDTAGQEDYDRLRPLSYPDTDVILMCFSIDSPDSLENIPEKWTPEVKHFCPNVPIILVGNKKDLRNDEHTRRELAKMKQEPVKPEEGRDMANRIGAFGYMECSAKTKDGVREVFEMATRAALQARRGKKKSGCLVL

B1: triple phosphorylation Mdmx mutant S342/S367/S403A (3SA) (protein, UniProt O15151 1-490)
chain: MTSFSTSAQCSTSDSACRISPGQINQVRPKLPLLKILHAAGAQGEMFTVKEVMHYLGQYIMVKQLYDQQEQHMVYCGGDLLGELLGRQSFSVKDPSPLYDMLRKNLVTLATATTDAAQTLALAQDHSMDIPSQDQLKQSAEESSTSRKRTTEDDIPTLPTSEHKCIHSREDEDLIENLAQDETSRLDLGFEEWDVAGLPWWFLGNLRSNYTPRSNGSTDLQTNQDVGTAIVSDTTDDLWFLNESVSEQLGVGIKVEAADTEQTSEEVGKVSDKKVIEVGKNDDLEDSKSLSDDTDVEVTSEDEWQCTECKKFNSPSKRYCFRCWALRKDWYSDCSKLTHSLATSDITAIPEKENEGNDVPDCRRTIAAPVVRPKDAYIKKENSKLFDPCNSVEFLDLAHSSEAQETISSMGEQLDNLSEQRTDTENMEDCQNLLKPCSLCEKRPRDGNIIHGRTGHLVTCFHCARRLKKAGASCPICKKEIQLVIKVFIA
B2: HA-Mdmx (protein, UniProt O15151 1-490)
chain: B1 chain with A342S, A367S, A403S
B3: endogenous Mdmx (protein, UniProt O15151 1-490)
chain: B1 chain with A342S, A367S, A403S
B4: N-terminal Mdmx fragment (1–153) (domain or fragment, UniProt O15151 1-153)
chain: MTSFSTSAQCSTSDSACRISPGQINQVRPKLPLLKILHAAGAQGEMFTVKEVMHYLGQYIMVKQLYDQQEQHMVYCGGDLLGELLGRQSFSVKDPSPLYDMLRKNLVTLATATTDAAQTLALAQDHSMDIPSQDQLKQSAEESSTSRKRTTED

Legend:
GFP-RhoAN19 = GFP-RhoAN19 (UniProt P61586); test: co-IP; GFP-Trap pull-down (paper's term) of GFP-tagged RhoA constructs from lysates of transfected A375 cells (50 mM Tris-HCl pH 7.5, 150 mM NaCl, 1% Nonidet P-40, 10% glycerol, 10 mM EDTA), overnight at 4 °C; Mdmx co-transfected or endogenous; Western blot
wild type GFP-RhoA = wild type GFP-RhoA (UniProt P61586); test: as above
recombinant GST-RhoA = recombinant GST-RhoA (UniProt P61586); test: pull-down; recombinant GST-RhoA loaded in vitro with GDP (0.5 mM, 30 °C, 30 min) on glutathione beads, incubated with A375 cell extracts overnight at 4 °C; endogenous Mdmx detected by Western blot; only the target purified

| Binder | binding (GFP-RhoAN19) | binding (wild type GFP-RhoA) | binding (recombinant GST-RhoA) |
| --- | --- | --- | --- |
| B1 | binds | – | – |
| B2 | binds | binds | – |
| B3 | binds | binds | binds |
| B4 | no binding | – | – |
